Assay in all cases: NCI-60 one-dose screen, 48 h (100 = growth as untreated, 0 = no growth, -100 = all killed)
Common to all, as to details: 2.5 mM

The test system of test [1] is SW-620 colon.
The subject of test [2] is MCF7 breast.
The subject of test [3] is HCT-116 colon.

The text below walks through data of PubChem BioAssay (NCI).

Some compounds were tested as several samples or in several runs, with calls that do not always agree.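 Assay: single dose, 48 h. Readout: percent growth (0 = no net growth; negative = cell death). Active: <10.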 Not every entry of the source has a single result; some have several. Only these are listed. The source may hold further records. These are repeated runs of one drug, at the concentration stated with the values; each value is one run. Signs of the kind (2×) stand for listed records that agree.

In the case of `O=c1[nH]cc(F)c(=O)[nH]1`, the growth result in test [1] (runs of 1998) was “active: -19.9%, 0.873% and inactive: 38.9, 29.1, 25.3, 50.5, 26.4 (2×), 22.7, 15.2, 21.5, 30.6, 12.6, 28.1, 35.2, 21.2, 34.1, 21.3, 26.1, 22.2, 25.1, 22.9%”; in test [1] (runs of 1999), “active: -6.85, 5.02, -48.9, 1.72, 3.04, -47.2, 2.34, 1.79, 1.78, -51.4, 6.91, 2.76, 6.44% and inactive: 30.6, 24.6, 32, 27.8%”; in test [1] (runs of 2000) it was “active: 5.05, 2.88, 5.87, 2.59%”; in test [2] (runs of 1993), “inactive: 11.8, 10.3, 11.5, 23.8, 12.5, 15.2, 20.8, 15.7, 13.5, 15.5, 10.7, 12.7, 97.9, 13.2, 72.3, 10.4, 10.5, 10.9, 12.2% and active: 2.98, -3.88, 7.74, -11.2, 7.08, 4.94, -22.1, 9.42, 6.99, 2.61, -6.58, 7.78, 5.82, 5.58, 6.57, 6.54, 6.33, 4.82, 7.3, -10.9, 4.16, 6.05, 2.59, 1.5, 5.32, 4.31, 9.17%”; in test [2] (runs of 1994) it was “inactive: 11.1, 10.6 (2×), 13.6, 13.2, 13.8, 18.1, 16.2, 30.9, 28, 27.2, 21.1% and active: 3.11, -66.1, 5.72, 4.95, 2.64, 7, -37.1, 3.79, 3.82, 0.773, 7.72, -53.1, 8.55, -9.68, -8.96, -12.8, 5.63, 5.98, -5.06, 3.83%”; in test [2] (runs of 1995), “inactive: 30.5, 11.1, 14.2, 41.9, 13.2, 198, 10.6, 17.3, 38, 11.7, 21, 10.5, 10.7, 15.2, 26, 12.7, 20.9, 11.9, 10.1% and active: 4.19, 9.17, -25.4, 2.28, -0.217, -21.8, -13.8, 4.42, -25.8, -28.5, -20, 7.55, 0.786, 0.342, 1.41, 5.62, 7.41, 7.15, -8.64, -23.6, 5.24, 5.88, 4.82, 5.69, 5.44, 6.94, 1.32, 0.0943, 8.7, -3.09, -6.9, 8.88, 5.51, -53.8, -55.6%”. Moreover, the growth entry in test [2] (runs of 1996) is “active: 3.98, 5.63, -35.8, 1.69, 0.778, 0.735, -9.06, -2.5, -14.9, -71.3, -100 (9×), -97.9, 5.3 (2×), -1.97, -6.87, 4.88, 0.363, 7.57, -69.9, 5.7, 3.4, -12, -85.6, 0.288, 1.87, 4.1, 6.79, 4.65, 2.47, 8.96, -51.7, 8.36, 0.49, -27.7, 0.527, -96.7, -61.7, 7.24, 4.3, 5.55, 9.59, 3.68, -77.1, -86.9, 4.71, 9.51, 5.72, 2.31, 2.02, -15.5, 3.03, 3.46, 6.24, 3.76, 7.74, 3.23, 7.02, -35.9, 8.99, 2.74, 0.304, -19, 7.37, 4.09, 7.54, 6.06, 3.97, -12.4, 5.48, 6.54, -37.6, -16.7% and inactive: 10.1, 13.6, 98.9, 102, 80.7, 64.7, 22.3, 16.5 (2×), 10.4 (3×), 15.3, 12.2, 18.5, 25.8, 12.8, 10.3, 11.1, 16.2, 11.7, 20.5, 12.1, 10.6, 19.5, 21.3, 12.6, 18.2, 34.9, 37.3, 26.1, 14.2, 13.3, 21%”; in test [2] (runs of 1997), “active: -81.2, 7.63, -8.78, -12.7, -18.4, 7, 4.46, 1.21, 5.52, 5.57, -68.5, -16.8, 6.63, 5.71, 9.57, -100, 7.7, -14, 7.58, 5.09, -14.8, 8.31, -12.6, 4.02, 1.71, 4.12, -11.8, -20.3, 9.43, -15.3, 1.37, 7.08, -23.5, -50, -63.6, -90.3, 8.73, -25.7, -0.37% and inactive: 10.2, 18.1, 18, 14.8, 87.4, 13.5, 25.8, 22.2, 10, 15.4, 10.9, 28.2, 13.4, 16.4, 17.8, 16.8, 13.9, 20.3, 80, 78.4, 33.9, 12, 14.7%”; in test [2] (runs of 1998), “inactive: 95.9, 14.4, 25.2, 16.7, 15.4, 23.6, 16.4, 14.8, 10.2, 12.6, 13.9, 12.2, 14.7, 13, 12.7, 13.3, 27.6% and active: -27.5, -4.43, -4.75, -5.41, -5.74, -3.89, -70.2, -68.1 (2×), -71.3, -72.5, 5.42 (2×), 3.85 (2×), -2.42, -0.906, 8.33, 4.01, 4.94, 3.89, 7.78, 4.06, 5.68, 9.06 (2×), 4.49, 5.7, 8.63, 7.54, -4.63, -41.4, 5.39, 1.69, -15.5, -19.9, 3.54, 1.24, 7.15, 3.8, 9.24 (2×), 4.75, -0.743, -2.59, -11.1, 5.98, -2.94, 0.314, 3.93, 4.82, 2.05, 6.87, 4.72, 0.633%”; in test [2] (runs of 1999), “active: -62, 7.84, 3.87, 0.0578, -60.1, 4.94, 9.55, 5.26, -2.75, 9.88, 3.71, 2.25, 2, 2.78 (2×), 6.5, 4.64, 0.375, 2.82, 6.81, 7.49, 3.11, 9.03, 3.96, 8.13, 4.44, 8.39, 4.8, 5.76, 6.62, -100 (2×), -4.62, 0.503, -72.6, 2.19, 6.59, 4.46, 5.88, 8.38, -79.6, -15, -86.2, -86.3, -80.2% and inactive: 12.4, 10.7, 10.1, 12, 11.3%”; in test [2] (runs of 2000), “active: -84.3, 0.143, 1.04, -90.3%”; in test [3] (runs of 1991), “active: 5.21, 4.57, -26.9, -68.3, -51.7, -50.6, -97.4, -98.6, -16.7, 1.09, -79.8, -71.7, -98.2, -25.4, -57.3, -56.7, -81.2, -96.8, -94%”. Moreover, the growth result is “active: -44 (2×), -81.6 (2×), -89.9 (2×), -73.7, -96.1, -95.9, -17.5, -77.9, -36, -70.2, -53.2, -85, -89.8, -100 (8×), -96.9 (2×), -96.6, 0.213, -80.1 (2×), -90.2, -73, -90.8, -66.4, -99.5, -51.1, -34.4, -81.7, -93.8, -94.5, -98.8, -91.3, -74.5, -46.9, -58.8, -43, -58.6, -86.3, -97.2, -16.3, -69.6 (2×), -97.8, -99.2, -62.5, -61.4, -23.9, -74.9, -57, -69.2, -87.4, -41.2, -94.4, -70.4 (2×), -46.1, -47.1, -32.8, -79.5, -78.2, -48.8, -53.4, -82.6, -99.6, -24.4, -76.8, -81.9, -99.3, -61.3, 2.57, -83.8, -80.3, -90.9, -68.9, -62.4, -42.6, -74.7, -49.2, -63.9, -98.7 (3×), -97.6, -25.6, -62.7, -92, -61, -21.7, -88, -71.4, 0.0884, -62.2, -51.9, 2.47, 2.64, -76.5, -21, -99.8, 1.33, -51.4, -12.6, -49% and inactive: 53.1%, 79.8%” in test [3] (runs of 1992); “active: -41, -38.8, -14.2, 2.22, 5.91, -98.1, -56, 0.395, -65.1, -41.3, -97.4, -82.3, 4.25, 1.25, -58.3, 2.07, 1.38, -58.9, -6.11, 3.84, -90.3, -95, -44.5, 3.02, -28.6, -33.2, -84.6, -42.7, -29.9, -80.9, 2.4, -75.3, -81.6, -37.9, -75.2, -78, -41.8, -49.3, -85, 1.44, -10.6, -63.9, -100, -48.6, -54% and inactive: 87.1%, 57.7%” in test [3] (runs of 1993); “active: -24.3, -9.16, -11.6, -43.6, -16.7, -74.6, -55.2, -8.22, -34.6, -22.1, -25.7, -29.9, -97.9, -18.7, -36.8, -60.7, 3.53, 1.79, -2.9, -84.9, 1.49, -63.8, -85.6, 0.3, -52.4, -34.9, -77.7, -23.9, -48.2, -100, -3.89, 2.94, -21.6% and inactive: 30.4%” in test [3] (runs of 1994); “active: 1.36, -97.3, 2.48, -6.97, -23.6, -39.7, -84.4, -71.5 (2×), -29.5, -96, -14.4, -25.8, -34.3, -86.8, 1.46, 7.28, -89.5, -95.2, -16.4, -72.9, -89.2, -75.6, -72.1, -40.9, -18.3, -40.8, -79.6, -41.7, 2.19, -95.5, -59.7, -60.9, -54.8, -54.5, -28.6, -68, -12.3, -11, -22.3%” in test [3] (runs of 1995); “active: -20.4, -65.3, -95.5, -71.9, -47.9, -97.1, -34.6 (2×), -28, -37.3, -77.5, -43.5, -16.7, -35.8, -61.4, -99.5, -93.1, 0.154, -35, -51.6, -77.8, 1.45, 4.34, -43.7, -13.8, -87.6, -49, 1.13, -2.99, 1.32, -30.3, -76.8, -74.7, -46.5, -2.16, 2.08, -9.79, -66.5, -66.8, -94.2, -86.9, -33.2, -60.5 (2×), -34, -13, -28.3, -1.33, 1.86, -28.6, 8.28, -70.4, -91.2, -58.5, -43, -33, -79.6% and inactive: 10.2%” in test [3] (runs of 1996); “active: -56.4, -22.6, -50.2, -50, -30.7, -48.8, -80.2, -59.8, -54.2, -77.2, -51 (2×), -25.3, -57.1, -73.6, -3.48, 1.39, -60.2, -11.2, -8.09, 4.18, -2.78, -26.2, -28.2, -34.8, -34.1, -80.5, -42.1, -40.2, -67.6, -13.7, -68, -55.3, 4.75, 4.21, -26.4, -76.4, -43.4, -41.4, -79.3, -89.1% and inactive: 20.6%” in test [3] (runs of 1997). Besides, the growth result in test [3] (runs of 1998) is “active: -95.7, -69.5, 3.02, -74.6, -10.7, 4.4, -89.3, -52.7, -20.4, -84.7, -100, -86, -0.744, -13, -6.2, -16.5, -42.5, -3.76, -99.7, -7.51, -68.9, -1.61, -83.2, -88.2% and inactive: 11.7%”; in test [3] (runs of 1999) it was “inactive: 15.2% and active: -44.7, -6.05, -73.2, -19.5, -32.3, -100 (3×), -63.2, -76.6, -79.7, -90.9, -61.8, -78.8, -79.5%”.
